Data: the RNAGym collection of RNA variant scans (doi:10.7554/elife.90254)
The source gives no read counts; variants with many changes may rest on few reads.

B1: LINE1-mini (parent)
chain: GGCAGAGCUCAACACAGCGUGGCAAAGUGGCUGUGGCUAGACUGCC

Variants of: B1
Test: self-cleavage, relative activity (ratio to wild type); higher = more cleavage; in vitro, sequencing; the parent is a self-cleaving ribozyme

| Variant | self-cleavage |
| --- | --- |
| A6G G7U A11G C18G | 0.04 |
| G7U A12U C13U A14G G17A G27C | 0.1 |
| C15G A16U U32A | 0.07 |
| G21C G30A A41G | 0.21 |
| G5U G7C G21C A39U | 0.03 |
| A26G G30C G40A | 0.17 |
| G5C G19A C42A U43C | 0.06 |
| G2A U9C A16C G19U G33C | 0.02 |
| G7U A14G G36C | 0.05 |
| G1A G17U A41U C46G | 0.14 |
| G5A A11C G21U G33C | 0.01 |
| U20G A25C C46U | 0 |
| G1A C8A C18G G22C G33U G40A C46A | 0.13 |
| G2C C8G C13G A26U G27U U38C | 0 |
| G2U G33U C37G G44U | 0.02 |
| G17U U20A G27C | 0.24 |
| C10A A12C U32G | 0.01 |
| G1U A4C G5C A11C G35U | 0.02 |
| U9C U28G C37U | 0.03 |
| C10A G19C U20C U28G | 0 |
| G2A C18G A25G | 0.05 |
| C31G G35C A41C U43G | 0.03 |
| G5C C8U A16C G44A | 0.05 |
| C3G G40A A41U | 0.32 |
| A26G G35U A41C | 0.03 |

| Variant | self-cleavage |
| --- | --- |
| G2A C10A C13U | 0.02 |
| A25U U28C C31U A41C | 0.04 |
| G1C C13U G21C G29U | 0.06 |
| G7U C10G C23G A24C C37U | 0 |
| A14G G36A G44A | 0.1 |
| G2A G5U G33U | 0.13 |
| A6G C15A A41U | 0.05 |
| G2A A12U C15A A16U | 0.15 |
| G5A G19C C37A C42U | 0.03 |
| U9A C10G G29U | 0.03 |
| A4C G7U U28A A41G | 0.15 |
| C10A U43C G44C | 0.01 |
| G27A A41G U43G | 0.02 |
| G1A C3G C15A G29C A39U G40A | 0.29 |
| A16U G17A U28C | 0.03 |
| G5A G22A A24U | 0.1 |
| C3A C8A U28C | 0.55 |
| G2A G7C U9A A12U G19A G27C | 0.21 |
| G2U U28C G33U | 0.08 |
| G1C C23G G36A G40C | 0.05 |
| G1A U9C G22C A26U A41U | 0.23 |
| C18U C23A C42A | 0.14 |
| A4C A12G G40C | 0.44 |
| A6G U34A C42A | 0.04 |
| G7U U9G C15U U43A | 0.27 |

| Variant | self-cleavage |
| --- | --- |
| A12C C15A G27C | 0.09 |
| G2U C10G G17C C18G G40C | 0.01 |
| G5A C13G C23U | 0.03 |
| C13A A14G G22U | 0.08 |
| G2C A11U G17A U43A | 0.01 |
| A11G A16C C45G | 0.03 |
| G5U U20G A24G A25U | 0.07 |
| C10A A12U G30U C31U | 0.01 |
| C10G A24G U43G | 0 |
| C10A U20C A25C G29C C37G | 0 |
| C8A A11U G29C | 0.01 |
| G17U G35C C42G C46A | 0.01 |
| A12C A26C U34C | 0.02 |
| A4C C18U G22C G33A | 0.04 |
| G29A G35C C46U | 0.14 |
| U9C C13G C15G A25C U28G | 0.01 |
| G1A A25U U28C C37U C45U | 0.05 |
| U9C A24C A26G | 0.01 |
| C8U C31G U43G | 0.3 |
| C18A U20A C23A A26C U32C G35C | 0.04 |
| G7C C15U G19U U38A | 0.04 |
| G2C A25G G27C A39U C45G | 0.3 |
| G17U G30A C46A | 0.51 |
| C8A C15U G22C G29U | 0.34 |
| U9C G27A G35U | 0.07 |

| Variant | self-cleavage |
| --- | --- |
| G5C A11C G17C | 0.03 |
| A4G C10U U32C | 0.03 |
| C23U U28C G35A C37G U38G | 0.04 |
| G2C A4U A14U | 0.07 |
| A11U G22A U43A | 0 |
| G1U G2U A4U C31A | 0.03 |
| U9G G33A G40A U43A | 0.01 |
| C10U U28A G44U | 0.01 |
| A4G C8U U9A G29U | 0.08 |
| G2C A6C A25G U43A C46A | 0.01 |
| G2C A4U C10U | 0.05 |
| A4C C8U G36U | 0.26 |
| C13A G19U U34A | 0.06 |
| A11G G17C G29A G36C A39C | 0 |
| A4U A12G G27U U43G | 0.01 |
| U9A A11C A14G G19C | 0.03 |
| C3G C8A A14U | 0.1 |
| G2C G19U A24G G33U | 0.01 |
| C10A G22A C37G G44U | 0 |
| G1U G40A C45A | 0.14 |
| A26U C37U G40U | 0.21 |
| G7C A12U G22C G35A | 0.18 |
| G5A A16U G27C C42U | 0.07 |
| A6G U34G A41U U43C | 0.02 |
| G19C G21C G40U | 0.03 |

| Variant | self-cleavage |
| --- | --- |
| G1U C10G C23U U43A | 0.02 |
| C3A A4G G17A U34G | 0.02 |
| G27A C37G A41U | 0.02 |
| G2A C13U G21C A25G U32C A41U | 0.02 |
| G7A C10U C18A C23G C37U | 0.01 |
| G19C C23A A25C A39G | 0.03 |
| G1A A4C G19U | 0.06 |
| C3G C10A G33C | 0.01 |
| U9C C10A G21A | 0.02 |
| C10A C15A G17A | 0.02 |
| C3U C8U U34A | 0.12 |
| C18A G36U U38G C45U | 0.02 |
| A4U C10G U20C | 0.03 |
| C10G C15G U28A G30C C42U | 0.01 |
| C10U A11C U20A U38G | 0.01 |
| C13U G29A A41U | 0.12 |
| A11C C15A A39G C42U | 0.02 |
| C8A U9A U43A C45A | 0.17 |
| C15U U28G U43C | 0.05 |
| G7U G21U C23G U32A C45U | 0.09 |
| A16C U34C C46G | 0.02 |
| A14C C23U G35U C37U U38G | 0.02 |
| G27C G40A C46A | 0.23 |
| G5A G30U G40A | 0.03 |
| C3A G5A A39G | 0.11 |

| Variant | self-cleavage |
| --- | --- |
| A14C G19A G36C G44A | 0.03 |
| C8U C23A G35A | 0.59 |
| G5C G19C C31A | 0.09 |
| C10A A14C C42A | 0.01 |
| G19A C31U C42G | 0.04 |
| C18U G21C U28C A41G C42U | 0.06 |
| A6G A26C U38A | 0.03 |
| G2U C8U C15U G33U | 0.08 |
| G1U C3U A4U | 0.06 |
| U9A C18A U20C G40U | 0.03 |
| G5U U9A C18A G21A U38G | 0.08 |
| G19U C23G A24C A25U G29C | 0.06 |
| G1U G2C U9A | 0.03 |
| C10A U28C G33U G40A | 0 |
| G1A G21C C23G U28C U32A | 0.15 |
| G2C A14U G19U C31G | 0.06 |
| C13A C18U C23A A25C G33C | 0.03 |
| C18U U43G G44U | 0.06 |
| G21U G30C G40C | 0.09 |
| G5A A14G C15A A25U | 0.04 |
| G22C G29C A39U | 0.12 |
| C15G G17U A26C G29C C42U | 0.03 |
| C23U U28C A39C | 0.05 |
| G1C C13G A16G U34C | 0 |
| C18G G29U U34A | 0.12 |

| Variant | self-cleavage |
| --- | --- |
| G5C C10U U32C U34C G36C | 0.02 |
| G1U U34C C46A | 0.12 |
| U9A C10A C15U U32G A41U | 0.05 |
| G5U C10G C31G U34A | 0.02 |
| U9G A25C U28C G30U | 0.01 |
| A11C A12U A14G A16U C18U G19A C23U | 0 |
| G1U C13A A26G C37G | 0.03 |
| C13G C18U G19U | 0.05 |
| C13G A14U C37A C46G | 0.05 |
| A4C A14U U28C G33C | 0.04 |
| G1C C31G A39C | 0.01 |
| G2U C10U G17A G40U C46G | 0.02 |
| A12G A16G G17C G40U | 0.01 |
| C3G G17U C46G | 0.23 |
| G5U G22A G33A G35A | 0.05 |
| C15A G17C U20A A39U | 0 |
| C10A A14C A41C | 0.04 |
| A4U G22A U38A | 0.02 |
| G17C U28A G30A C31G | 0.76 |
| A4C C23A G40A | 0.15 |
| G5C A24U G33U C37A | 0.12 |
| G22U A26G G27A U28A | 0.5 |
| G29A U32G U38C | 0.03 |
